{"source": "PubChem BioAssay AID1240", "about": "(Sanford-Burnham Center for Chemical Genomics, 2008)", "note": "About 800 (1.6%) of roughly 50,000 compounds showed an effect of 50% or more. Some of the results follow."}
{"target": "Bcl-2-like protein 10 (Homo sapiens) (UniProt Q9HD36)", "sequence (Q9HD36 whole entry, looked up)": "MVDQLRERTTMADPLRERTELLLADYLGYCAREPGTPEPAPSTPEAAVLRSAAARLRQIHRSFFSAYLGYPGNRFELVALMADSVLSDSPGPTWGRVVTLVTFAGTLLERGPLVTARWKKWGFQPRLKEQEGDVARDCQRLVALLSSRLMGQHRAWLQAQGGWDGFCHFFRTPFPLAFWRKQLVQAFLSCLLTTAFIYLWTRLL", "experiment": "Phenotype converters, Bcl-B/TR3 peptide binding displacement, primary biochemical FP (AID 1240);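 further: 0% = Bcl-B with tracer peptide and DMSO and 100% = tracer peptide lacking Bcl-B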", "settings": "GST-Bcl-B / FITC-TR3 peptide fluorescence polarization; stronger effect = higher value; compound at 3.75 mg/L", "units": {"displacement": "%"}}
{"smiles": "O=C(c1ccc(Br)cc1)N1CCN(Cc2ccccc2)CC1", "displacement": -9.6}
{"smiles": "COc1cc(C(=S)N2CCOCC2)ccc1OC(=O)c1ccc([N+](=O)[O-])cc1", "displacement": 10.9}
{"smiles": "CCOc1ccccc1NC(=O)COc1ccc(Br)c(C)c1", "displacement": -9}
{"smiles": "CN1CCN(C(=S)NC(=O)c2ccc(Br)cc2)CC1", "displacement": -1.7}
{"smiles": "COc1ccc(/C=C(\\NC(=O)c2ccccc2)C(=O)N/N=C/c2sccc2C)cc1", "displacement": 8.7}
{"smiles": "CCOc1ccc(C(=O)N2CCN(c3ccccc3OC)CC2)cc1OCC", "displacement": 39.6}
{"smiles": "O=C(O)CCC(=O)Nc1sc2c(c1C(=O)Nc1cccc3ccccc13)CCCC2", "displacement": 7.4}
{"smiles": "Cc1c(-n2c(O)c(C3=c4cc(Cl)ccc4=NC3=O)sc2=S)c(=O)n(-c2ccccc2)n1C", "displacement": 5.6}
{"smiles": "CN(C)/C=C1\\N=C(c2cccc(Cl)c2)OC1=O", "displacement": 1.9}
{"smiles": "O=c1c2cc3c(=O)n(-c4ccc(S)cc4)c(=O)c3cc2c(=O)n1-c1ccc(S)cc1", "displacement": 10.5}
{"smiles": "CCC(Oc1ccccc1)C(=O)Nc1sc2c(c1C(N)=O)CCC(C(C)(C)C)C2", "note": "(stereo not given)", "displacement": -0.3}
{"smiles": "COC(=O)C(CC(C)C)NC(=O)COC(=O)/C=C/c1ccc([N+](=O)[O-])cc1", "note": "(stereo not given)", "displacement": -12}
{"smiles": "C/C(=N\\NC(=O)COc1ccc(Cl)cc1[N+](=O)[O-])c1cccs1", "displacement": 2.4}
{"smiles": "CCCCOc1cc2oc(=O)cc(C)c2cc1CC", "displacement": 7.3}
{"smiles": "COC(=O)c1cc(C(=O)Nc2ccccn2)cc([N+](=O)[O-])c1", "displacement": -1.3}
{"smiles": "O=C(Cc1ccccc1)Nc1ccc(/C=C/C(=O)c2ccccc2)cc1", "displacement": -9.3}
{"smiles": "Cc1ccc(N2C(=O)CC(Sc3nc(C)cc(C)n3)C2=O)cc1", "note": "(stereo not given)", "displacement": 0.8}
{"smiles": "CC(=O)c1ccc(Oc2ccc([N+](=O)[O-])cc2)cc1", "displacement": 4.8}
{"smiles": "COc1ccc2c(c1OC)C(=O)OC2CC(=O)c1ccc(N(C)C)cc1", "note": "(stereo not given)", "displacement": 2.9}
{"smiles": "Fc1ccc(Nc2nc(-c3ccc(F)cc3)cs2)cc1", "displacement": -5.3}
{"smiles": "CC(=O)CC(=O)Nc1cccc(Br)c1", "displacement": -1}
{"smiles": "C=CCn1c(C)c(/C=C(/C#N)C(=O)Nc2ccc(OC)cc2)c2ccccc21", "displacement": -6.6}
{"smiles": "Cc1n[nH]c(C)c1CCC(=O)N/N=C\\c1ccc(Cl)c(Cl)c1", "displacement": -1.7}
{"smiles": "Cc1ccc(S(N)(=O)=O)cc1NC(=O)c1ccc([N+](=O)[O-])cc1Cl", "displacement": 11}
{"smiles": "COCCOC(=O)c1c(C)oc2ccc(NS(=O)(=O)c3cc(C)ccc3C)cc12", "displacement": 10.8}
{"smiles": "O=C(CN(CCc1ccccc1)S(=O)(=O)c1ccc(Cl)cc1)NC1CCCC1", "displacement": -20.6}
{"smiles": "O=C(NCC1CC2CC1C1CC21)c1ccc(F)cc1", "note": "(stereo not given)", "displacement": -1.8}
{"smiles": "Cc1cccc(NS(=O)(=O)c2cccc3cccnc23)c1", "displacement": -10.6}
{"smiles": "COc1ccc(NC(=O)/C(C#N)=C/c2ccccc2[N+](=O)[O-])cc1", "displacement": 9.6}
{"smiles": "CCOc1ccc(C(=O)Nc2ccc(C(=O)OC)cc2)cc1Cl", "displacement": -5.2}
